Measured values: PubChem BioAssay AID1030 (National Center for Advancing Translational Sciences (NCATS), 2008)
About 16,000 (7.3%) of roughly 220,000 compounds were called active. This list was built around the results that the source calls inconclusive (neither active nor inactive); the mix of calls is not that of the screen. The call rests on the fitted dose curve; in most records, active means well fitted inhibition curve with a large enough effect (not every such curve was filed as active); inconclusive means small, poorly fitted or top-dose-only effect, or another doubt; inactive means no such curve, though single readings can be large or run the other way. Potencies of inconclusive entries are left out as doubtful fits.

What follows are compounds tested against Aldehyde dehydrogenase 1A1 (Homo sapiens) (UniProt P00352) (assay: qHTS Assay for Inhibitors of Aldehyde Dehydrogenase 1 (ALDH1A1)). Conditions: Purified ALDH1A1, NADH fluorescence, propionaldehyde substrate; series mostly up to 75.3 µM; activity, negative = inhibition: at the top concentration.
Potency means the concentration at half of the fitted maximal effect; tags describe the fitted curve by direction and shape.
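Wherever activity, negative = inhibition is given: plate controls were no enzyme wells and a reference inhibitor.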

UniProt P00352, sequence (P00352 whole entry, looked up): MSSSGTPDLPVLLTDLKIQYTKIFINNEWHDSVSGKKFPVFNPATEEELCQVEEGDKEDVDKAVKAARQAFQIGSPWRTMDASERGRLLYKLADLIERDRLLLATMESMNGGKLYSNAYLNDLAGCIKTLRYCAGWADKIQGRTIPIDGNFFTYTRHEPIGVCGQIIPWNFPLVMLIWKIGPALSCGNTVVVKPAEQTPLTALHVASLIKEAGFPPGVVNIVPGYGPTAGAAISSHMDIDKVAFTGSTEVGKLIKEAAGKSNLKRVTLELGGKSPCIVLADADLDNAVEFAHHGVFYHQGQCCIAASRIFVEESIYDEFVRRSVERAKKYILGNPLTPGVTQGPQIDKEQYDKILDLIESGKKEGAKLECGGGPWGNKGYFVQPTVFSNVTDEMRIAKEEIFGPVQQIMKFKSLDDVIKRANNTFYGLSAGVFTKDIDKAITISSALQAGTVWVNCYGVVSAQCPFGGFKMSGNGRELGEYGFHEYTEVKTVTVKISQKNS

Structure (SMILES)	activity, negative = inhibition	Potency
CCC(C)(C)n1nnnc1C(C(C)C)N1CCSCC1 (centres undefined)	inactive: 4.21%	
C/C(=N\NC(=O)c1ccccc1)c1ccc(C)c([N+](=O)[O-])c1		inconclusive [inhibitor, single point]
Cn1cc(Br)c(C(=O)NC(=S)Nc2ccc(S(N)(=O)=O)cc2)n1		inconclusive [inhibitor, single point]
CCOc1ccc(C(=O)NCC(=O)OCc2c(C)noc2C)cc1	inactive: -9.97%	
Cn1cnc2c(N3CCCCC3)nccc21		inconclusive [inhibitor, partial curve]
CCn1c(SCC(=O)c2ccccc2)nnc1-c1cccs1		inconclusive [inhibitor, partial curve]
COc1ccc(C(=O)/C=C/c2ccc(N3CCCCC3)c([N+](=O)[O-])c2)cc1		active: 4.47 µM
CCOc1ccc2[nH]c(=O)c(CN(C(=O)N3CCOCC3)C3CC3)cc2c1		inconclusive [inhibitor, single point]
COc1ccc(CN(C(=O)c2ccc(-c3ccccc3)[nH]2)C(C(=O)NC(C)(C)C)c2ccncc2)cc1 (centres undefined)		inconclusive [inhibitor, full curve]
O=c1nc2n(c3ccc(Br)cc13)CCS2		inconclusive [inhibitor, single point]
CCOC(=O)c1ccc2c(c1)[nH]c(=S)n2CC		active: 25.1 µM
CCOc1ccc(NC(=O)c2cccc3c2C(=O)N(Cc2cccnc2)C3)cc1	inactive: -9.81%	
CCOc1ccc(CNC(=O)c2ccc(Sc3ccc(C)cc3)c(NC(C)=O)c2)cc1OC		inconclusive [inhibitor, partial curve]
CC1CCc2nc(NC(=O)CSc3nc4ccccc4o3)sc2C1 (centres undefined)		inconclusive [inhibitor, partial curve]
COc1ccc(-n2c(C)cc(/C=C/c3nc(O)c([N+](=O)[O-])c(=O)[nH]3)c2C)cc1		inconclusive [inhibitor, single point]
Cc1cc(NCCCN)nc(-c2ccccc2O)n1		inconclusive [inhibitor, partial curve]
CCN(CC)S(=O)(=O)c1ccc2nc(CSc3nnnn3-c3ccc(O)cc3)[nH]c2c1		inconclusive [inhibitor, single point]
O=c1c(-c2ccccc2)coc2cc(O)ccc12		inconclusive [inhibitor, partial curve]
CC(C)CCN1CC(C(=O)NCc2ccc(F)cc2)CC1=O (centres undefined)		inconclusive [inhibitor, single point]
CN(C)c1ccc(C2C3C(=O)N(c4ccc(C(=O)O)cc4)C(=O)C3ON2c2ccccc2)cc1 (centres undefined)		inconclusive [inhibitor, single point]
COC(=O)c1ccc(N(CC(=O)NC2CCCC2)C(=O)CNC(=O)c2ccco2)cc1	inactive: 2.08%	
CCOc1ccccc1NC(=O)c1ccc(F)c(S(=O)(=O)N2CCC3(CC2)OCCO3)c1		inconclusive [inhibitor, single point]

Structure (SMILES)	activity, negative = inhibition	Potency
CCOCCCNC(=O)c1c[nH]c2cc(C)ccc2c1=O	inactive: -4.04%	
COc1ccc(CSc2nncn2N)cc1[N+](=O)[O-]		inconclusive [inhibitor, single point]
C=CCNC(=O)/C(C#N)=C/c1ccc2c(c1)OCCO2		inconclusive [inhibitor, single point]
CC(=O)Nc1ccc(NC2=C/C(=N/S(=O)(=O)c3cccs3)c3ccccc3C2=O)cc1	inactive: 7.78%	
COc1cc2c(cc1OC)C(/C(C#N)=N\O)=NC(C)(C)C2		inconclusive [inhibitor, single point]
Cc1cc(N2CCCC2)ccc1/C=C1\NC(=S)N(C)C1=O		active: 4.47 µM
CCOC(=O)C1CCN(c2nc(C)cc(C)c2C#N)CC1		inconclusive [inhibitor, single point]
CSc1nn2c(C(F)(F)F)cc(C(F)(F)F)nc2c1C(N)=O	inactive: 11.7%	
Cc1cccc2cc(CN(CCCN3CCOCC3)Cc3nnnn3C(C)(C)C)c(=O)[nH]c12		active: 25.1 µM
CCOc1cc(/C=N/NC(=S)Nc2ccccc2C(F)(F)F)ccc1OCC(=O)N1CCOCC1		inconclusive [inhibitor, single point]
COc1ccc(C2C3=C(CCCC3=O)Nc3ccc4ncccc4c32)cc1OC (centres undefined)		inconclusive [inhibitor, single point]
O=C(Nc1ccccc1)OCCN1CCN(Cc2ccccc2)CCC1=O		inconclusive [inhibitor, single point]
Cc1ccc(S(=O)(=O)Nc2cc(C(=O)N3CCOCC3)ccc2N2CCCCC2)cc1		inconclusive [inhibitor, partial curve]
Cc1nn2c(C(F)(F)F)cc(-c3ccc(Cl)cc3)nc2c1C(=O)N1CCOCC1		active: 11.2 µM
COC(=O)c1ccc(NC(=O)C(=O)NCC2CCCO2)cc1 (centres undefined)	inactive: -2.56%	
O=C(Nc1ccn(-c2ccccc2)n1)c1ccc(S(=O)(=O)N2CCCCCC2)cc1		inconclusive [inhibitor, single point]
O=C(CCCCCN1C(=O)c2cccc3cccc(c23)C1=O)NCc1cccnc1		inconclusive [inhibitor, partial curve]
Cc1ccc(S(=O)(=O)Nc2cccc(CP(=O)(c3ccccc3)c3ccccc3)c2)cc1		active: 23.8 µM
Cc1ccc(NCc2cccnc2)cc1		inconclusive [inhibitor, single point]
Cc1cc(C)c2[nH]c(=O)c(CN(Cc3cccs3)C(=S)NCc3ccco3)cc2c1		inconclusive [inhibitor, partial curve]
Cc1cc2c(=O)oc(-c3ccc(Br)cc3)nc2s1	inactive: -12.1%	
CC(=O)OCC1OC(Sc2cccc3cccnc23)C(OC(C)=O)C(OC(C)=O)C1OC(C)=O (centres undefined)		inconclusive [inhibitor, partial curve]
